{"source": "the supplement of paper PMC8728848", "binders": {"B1": {"name": "CvGal2 (Crassostrea virginica) (protein)", "chain": "MGSSHHHHHHSSGLVPRGSHMRIREAGKRKDTTKVYQIPDGLFPGQQVMLRGRVPWGSKSFSINFSATPRMGEGDILFHLNPRPSEGVCIRNALLNGSWGAEEKWQPYFPFDDGRSFSVKIEVTNDAFRTFVNGRPFVDFLHRTDFRAGKYLTLREGAEYYDVIFQSKPNIPLTTAIHNGMRIGKTIRIRGMCTAQDGFAINFNDNRNNIYFHFNARPAQRTVVRNSYFGSWGNEETAISKEFPFYPFLYFYASFVCMEDKFAVYVNDEHFIDFAHRGNPNNISVLQIKGSVNVLDTECLEPMGEDAMTEVDSGLENGDLFVLNGLMTERGKTFAVNFLNGFTENDDIALHFNPRKSTGEVVLNSRYGGAWQSEEKVALPGVFWSNRPLQVKVETKRNKFKIYVNGVDLAKYKIRGNVEDVHAVQVKGDVFLLETLLLKRLMKPVWERLTGGIRPGTWVTLQGTPKKNWQQFVVNFALDDTLDGDIAFHFNVRRGARQVVRNHRQSGAWGREETVTPFFAFDSEATFEIVFFVKEEKFLIYFNGKLFFEFVHRVPVERITHIYMDGDCNFYEPEVVI"}}, "test_in_all_cases": "glycan array binding signal (z-score within array); higher = stronger binding", "details_in_all_cases": "glycan notation: IUPAC condensed, linker removed", "key": {"[1]": {"target": "Gal(b1-4)GlcNAc(b1-3)Gal(b1-4)GlcNAc(b1-2)Man(a1-3)[Gal(b1-4)GlcNAc(b1-3)Gal(b1-4)GlcNAc(b1-2)Man(a1-6)]Man(b1-4)GlcNAc(b1-4)[Fuc(a1-6)]GlcNAc", "in_short": "(§1)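 Glycan array binding is given as a within-array Z-score, which can be read as non-binding when negative. The arrays, 3228 of them, came from the Consortium for Functional Glycomics database and were retained only where the protein sequence was available. Z-scores were averaged across arrays of the same protein sequence at different concentrations or buffers and across linkers.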"}, "[2]": {"target": "Gal(b1-4)GlcNAc(b1-3)Gal(b1-4)GlcNAc(b1-2)[Gal(b1-4)GlcNAc(b1-3)Gal(b1-4)GlcNAc(b1-6)]Man(a1-6)[Gal(b1-4)GlcNAc(b1-3)Gal(b1-4)GlcNAc(b1-2)Man(a1-3)]Man(b1-4)GlcNAc(b1-4)GlcNAc", "in_short": "as §1"}, "[3]": {"target": "Gal(b1-4)GlcNAc(b1-3)Gal(b1-4)GlcNAc(b1-2)[Gal(b1-4)GlcNAc(b1-3)Gal(b1-4)GlcNAc(b1-6)]Man(a1-6)[Gal(b1-4)GlcNAc(b1-3)Gal(b1-4)GlcNAc(b1-2)Man(a1-3)]Man(b1-4)GlcNAc(b1-4)[Fuc(a1-6)]GlcNAc", "in_short": "as §1"}, "[4]": {"target": "Gal(b1-4)GlcNAc(b1-3)Gal(b1-4)GlcNAc(b1-3)Gal(b1-4)GlcNAc", "in_short": "as §1"}, "[5]": {"target": "Gal(b1-4)GlcNAc(b1-3)Gal(b1-4)GlcNAc(b1-3)Gal(b1-4)GlcNAc(b1-2)Man(a1-3)[Gal(b1-4)GlcNAc(b1-3)Gal(b1-4)GlcNAc(b1-3)Gal(b1-4)GlcNAc(b1-2)Man(a1-6)]Man(b1-4)GlcNAc(b1-4)GlcNAc", "in_short": "as §1"}, "[6]": {"target": "Gal(b1-4)GlcNAc(b1-3)Gal(b1-4)GlcNAc(b1-3)Gal(b1-4)GlcNAc(b1-2)Man(a1-3)[Gal(b1-4)GlcNAc(b1-3)Gal(b1-4)GlcNAc(b1-3)Gal(b1-4)GlcNAc(b1-2)Man(a1-6)]Man(b1-4)GlcNAc(b1-4)[Fuc(a1-6)]GlcNAc", "in_short": "as §1"}, "[7]": {"target": "Gal(b1-4)GlcNAc(b1-3)Gal(b1-4)GlcNAc(b1-3)Gal(b1-4)GlcNAc(b1-2)[Gal(b1-4)GlcNAc(b1-3)Gal(b1-4)GlcNAc(b1-3)Gal(b1-4)GlcNAc(b1-6)]Man(a1-6)[Gal(b1-4)GlcNAc(b1-3)Gal(b1-4)GlcNAc(b1-3)Gal(b1-4)GlcNAc(b1-2)Man(a1-3)]Man(b1-4)GlcNAc(b1-4)[Fuc(a1-6)]GlcNAc", "in_short": "as §1"}, "[8]": {"target": "Gal(b1-4)GlcNAc(b1-3)Gal(b1-4)GlcNAc(b1-3)Gal(b1-4)GlcNAc(b1-3)Gal(b1-4)GlcNAc(b1-2)Man(a1-3)[Gal(b1-4)GlcNAc(b1-3)Gal(b1-4)GlcNAc(b1-3)Gal(b1-4)GlcNAc(b1-3)Gal(b1-4)GlcNAc(b1-2)Man(a1-6)]Man(b1-4)GlcNAc(b1-4)GlcNAc", "in_short": "as §1"}, "[9]": {"target": "Gal(b1-4)GlcNAc(b1-3)Gal(b1-4)GlcNAc(b1-3)Gal(b1-4)GlcNAc(b1-3)Gal(b1-4)GlcNAc(b1-2)Man(a1-3)[Gal(b1-4)GlcNAc(b1-3)Gal(b1-4)GlcNAc(b1-3)Gal(b1-4)GlcNAc(b1-3)Gal(b1-4)GlcNAc(b1-2)Man(a1-6)]Man(b1-4)GlcNAc(b1-4)[Fuc(a1-6)]GlcNAc", "in_short": "as §1"}, "[10]": {"target": "Gal(b1-4)GlcNAc(b1-3)Gal(b1-4)GlcNAc(b1-3)Gal(b1-4)GlcNAc(b1-3)Gal(b1-4)GlcNAc(b1-2)[Gal(b1-4)GlcNAc(b1-3)Gal(b1-4)GlcNAc(b1-3)Gal(b1-4)GlcNAc(b1-3)Gal(b1-4)GlcNAc(b1-6)]Man(a1-6)[Gal(b1-4)GlcNAc(b1-3)Gal(b1-4)GlcNAc(b1-3)Gal(b1-4)GlcNAc(b1-3)Gal(b1-4)GlcNAc(b1-2)Man(a1-3)]Man(b1-4)GlcNAc(b1-4)[Fuc(a1-6)]GlcNAc", "in_short": "as §1"}, "[11]": {"target": "Gal(b1-4)GlcNAc(b1-3)Gal(b1-4)GlcNAc(b1-3)Gal(b1-4)GlcNAc(b1-3)Gal(b1-4)GlcNAc(b1-3)Gal(b1-4)GlcNAc(b1-2)Man(a1-3)[Gal(b1-4)GlcNAc(b1-3)Gal(b1-4)GlcNAc(b1-3)Gal(b1-4)GlcNAc(b1-3)Gal(b1-4)GlcNAc(b1-3)Gal(b1-4)GlcNAc(b1-2)Man(a1-6)]Man(b1-4)GlcNAc(b1-4)GlcNAc", "in_short": "as §1"}, "[12]": {"target": "Gal(b1-4)GlcNAc(b1-3)Gal(b1-4)GlcNAc(b1-3)Gal(b1-4)GlcNAc(b1-3)Gal(b1-4)GlcNAc(b1-3)Gal(b1-4)GlcNAc(b1-2)Man(a1-3)[Gal(b1-4)GlcNAc(b1-3)Gal(b1-4)GlcNAc(b1-3)Gal(b1-4)GlcNAc(b1-3)Gal(b1-4)GlcNAc(b1-3)Gal(b1-4)GlcNAc(b1-2)Man(a1-6)]Man(b1-4)GlcNAc(b1-4)[Fuc(a1-6)]GlcNAc", "in_short": "as §1"}, "[13]": {"target": "Gal(b1-4)GlcNAc(b1-3)Gal(b1-4)GlcNAc(b1-3)Gal(b1-4)GlcNAc(b1-3)Gal(b1-4)GlcNAc(b1-3)Gal(b1-4)GlcNAc(b1-2)[Gal(b1-4)GlcNAc(b1-3)Gal(b1-4)GlcNAc(b1-3)Gal(b1-4)GlcNAc(b1-3)Gal(b1-4)GlcNAc(b1-3)Gal(b1-4)GlcNAc(b1-6)]Man(a1-6)[Gal(b1-4)GlcNAc(b1-3)Gal(b1-4)GlcNAc(b1-3)Gal(b1-4)GlcNAc(b1-3)Gal(b1-4)GlcNAc(b1-3)Gal(b1-4)GlcNAc(b1-2)Man(a1-3)]Man(b1-4)GlcNAc(b1-4)[Fuc(a1-6)]GlcNAc", "in_short": "as §1"}, "[14]": {"target": "Gal(b1-4)GlcNAc(b1-3)Gal(b1-4)GlcNAc(b1-3)Gal(b1-4)GlcNAc(b1-3)Gal(b1-4)GlcNAc(b1-3)Gal(b1-4)GlcNAc(b1-3)Gal(b1-4)GlcNAc(b1-2)Man(a1-3)[Gal(b1-4)GlcNAc(b1-3)Gal(b1-4)GlcNAc(b1-3)Gal(b1-4)GlcNAc(b1-3)Gal(b1-4)GlcNAc(b1-3)Gal(b1-4)GlcNAc(b1-3)Gal(b1-4)GlcNAc(b1-2)Man(a1-6)]Man(b1-4)GlcNAc(b1-4)GlcNAc", "in_short": "as §1"}, "[15]": {"target": "Gal(b1-4)GlcNAc(b1-3)Gal(b1-4)GlcNAc(b1-3)GalNAc", "in_short": "as §1"}, "[16]": {"target": "Gal(b1-4)GlcNAc(b1-3)Gal(b1-4)GlcNAc(b1-3)[Gal(b1-4)GlcNAc(b1-3)Gal(b1-4)GlcNAc(b1-6)]GalNAc", "in_short": "as §1"}, "[17]": {"target": "Gal(b1-4)GlcNAc(b1-3)Gal(b1-4)GlcNAc(b1-6)[Gal(b1-3)]GalNAc", "in_short": "as §1"}, "[18]": {"target": "Gal(b1-4)GlcNAc(b1-3)Gal(b1-4)[Fuc(a1-3)]GlcNAc(b1-3)Gal(b1-4)[Fuc(a1-3)]GlcNAc", "in_short": "as §1"}, "[19]": {"target": "Gal(b1-4)GlcNAc(b1-3)GalNAc", "in_short": "as §1"}, "[20]": {"target": "Gal(b1-4)GlcNAc(b1-3)[Fuc(a1-3)GlcNAc(b1-6)]Gal(b1-4)Glc", "in_short": "as §1"}, "[21]": {"target": "Gal(b1-4)GlcNAc(b1-3)[Gal(b1-4)GlcNAc(b1-6)]Gal(b1-4)GlcNAc", "in_short": "as §1"}, "[22]": {"target": "Gal(b1-4)GlcNAc(b1-3)[GlcNAc(b1-6)]Gal(b1-4)GlcNAc", "in_short": "as §1"}, "[23]": {"target": "Gal(b1-4)GlcNAc(b1-6)Gal(b1-4)GlcNAc", "in_short": "as §1"}, "[24]": {"target": "Gal(b1-4)GlcNAc(b1-6)GalNAc", "in_short": "as §1"}, "[25]": {"target": "Gal(b1-4)GlcNAc(b1-6)[Gal(b1-3)]GalNAc", "in_short": "as §1"}, "[26]": {"target": "Gal(b1-4)GlcNAc(b1-6)[Gal(b1-4)GlcNAc(b1-3)]GalNAc", "in_short": "as §1"}, "Gal(b1-4)GlcNAc6P": {"target": "Gal(b1-4)GlcNAc6P", "in_short": "as §1"}, "Gal(b1-6)Gal": {"target": "Gal(b1-6)Gal", "in_short": "as §1"}, "Gal3S(b1-3)GalNAc": {"target": "Gal3S(b1-3)GalNAc", "in_short": "as §1"}, "Gal3S(b1-3)GlcNAc": {"target": "Gal3S(b1-3)GlcNAc", "in_short": "as §1"}}, "note": "The list shows a part of the results.", "data": [{"binder": "B1", "values": [{"measurement": "glycan array binding signal (z-score)", "setting": "[1]", "result": -0.175}, {"measurement": "glycan array binding signal (z-score)", "setting": "[2]", "result": -0.194}, {"measurement": "glycan array binding signal (z-score)", "setting": "[3]", "result": 0.507}, {"measurement": "glycan array binding signal (z-score)", "setting": "[4]", "result": -0.326}, {"measurement": "glycan array binding signal (z-score)", "setting": "[5]", "result": -0.221}, {"measurement": "glycan array binding signal (z-score)", "setting": "[6]", "result": -0.174}, {"measurement": "glycan array binding signal (z-score)", "setting": "[7]", "result": 0.549}, {"measurement": "glycan array binding signal (z-score)", "setting": "[8]", "result": 0.117}, {"measurement": "glycan array binding signal (z-score)", "setting": "[9]", "result": -0.126}, {"measurement": "glycan array binding signal (z-score)", "setting": "[10]", "result": 0.497}, {"measurement": "glycan array binding signal (z-score)", "setting": "[11]", "result": -0.037}, {"measurement": "glycan array binding signal (z-score)", "setting": "[12]", "result": 0.047}, {"measurement": "glycan array binding signal (z-score)", "setting": "[13]", "result": 1.02}, {"measurement": "glycan array binding signal (z-score)", "setting": "[14]", "result": 0.139}, {"measurement": "glycan array binding signal (z-score)", "setting": "[15]", "result": -0.337}, {"measurement": "glycan array binding signal (z-score)", "setting": "[16]", "result": -0.293}, {"measurement": "glycan array binding signal (z-score)", "setting": "[17]", "result": -0.289}, {"measurement": "glycan array binding signal (z-score)", "setting": "[18]", "result": -0.323}, {"measurement": "glycan array binding signal (z-score)", "setting": "[19]", "result": -0.334}, {"measurement": "glycan array binding signal (z-score)", "setting": "[20]", "result": -0.335}, {"measurement": "glycan array binding signal (z-score)", "setting": "[21]", "result": -0.246}, {"measurement": "glycan array binding signal (z-score)", "setting": "[22]", "result": -0.333}, {"measurement": "glycan array binding signal (z-score)", "setting": "[23]", "result": -0.324}, {"measurement": "glycan array binding signal (z-score)", "setting": "[24]", "result": -0.324}, {"measurement": "glycan array binding signal (z-score)", "setting": "[25]", "result": -0.17}, {"measurement": "glycan array binding signal (z-score)", "setting": "[26]", "result": -0.314}, {"measurement": "glycan array binding signal (z-score)", "setting": "Gal(b1-4)GlcNAc6P", "result": -0.336}, {"measurement": "glycan array binding signal (z-score)", "setting": "Gal(b1-6)Gal", "result": -0.331}, {"measurement": "glycan array binding signal (z-score)", "setting": "Gal3S(b1-3)GalNAc", "result": -0.02}, {"measurement": "glycan array binding signal (z-score)", "setting": "Gal3S(b1-3)GlcNAc", "result": 0.597}]}]}
